Measured values from the supplement of paper PMC4466236.
The full ranking holds about 33,000 sequences; the median of “E-score (dimensionless, -0.5 to 0.5)” is about -0.058, and the highest 2% start at about 0.35. The list shows a part of the results.

The sequences below were run on MvaT (assay: PBM 8-mer E-score (mean of HK and ME arrays) (E-score (dimensionless, -0.5 to 0.5)); higher = stronger relative binding preference; most listed sequences are background and not binding sites).
Summary of the method: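 Full-length P. aeruginosa MvaT carrying an N-terminal glutathione S-transferase tag was tested by protein binding microarray following a previously described protocol. Two universal double-stranded 60-mer arrays, ME and HK, were used, each with a constant 25-mer primer region and a variable 35-mer region covering all 8-mers. The rank-based E-score is the mean of the two arrays, parsed with a custom script. Its range runs from -0.5 to 0.5 for each 8-mer.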
With CGCGAAAA the “PBM 8-mer E-score” value was 0.213. CTTGGAGA was tested, and the “PBM 8-mer E-score” value was -0.135. With CCTAATCG the “PBM 8-mer E-score” value was -0.144. In the case of CTTTTGAA, the “PBM 8-mer E-score” value is reported as 0.129. CAGAGTCA was tested, and the “PBM 8-mer E-score” value was -0.133. TATTCCCA was tested, and the “PBM 8-mer E-score” value was 0.295. In the case of AGATGGTC, the “PBM 8-mer E-score” value is reported as 0.000856. In the case of TATAGGGA, the “PBM 8-mer E-score” value is reported as 0.0895. In the case of CGGATCCG, the “PBM 8-mer E-score” value is reported as -0.222. For GGCCCTAA, the “PBM 8-mer E-score” value was -0.109. In the case of CTAGTCAG, the “PBM 8-mer E-score” value is reported as -0.134. For GCCGCGGA, the “PBM 8-mer E-score” value was -0.15. For CGGGCAGC, the “PBM 8-mer E-score” value was -0.218. CACCCGCG was tested, and the “PBM 8-mer E-score” value was -0.348. In the case of AGCCGTTA, the “PBM 8-mer E-score” value is reported as 0.0718. For GCGGGTCA, the “PBM 8-mer E-score” value was -0.119. With GAGACTAA the “PBM 8-mer E-score” value was 0.0618. ACATACCT was tested, and the “PBM 8-mer E-score” value was 0.0235. With GCGATTCC the “PBM 8-mer E-score” value was -0.0999. In the case of GTACTGAC, the “PBM 8-mer E-score” value is reported as 0.0225. In the case of AAATTTGA, the “PBM 8-mer E-score” value is reported as 0.189. CTTACAAG was tested, and the “PBM 8-mer E-score” value was 0.0714. For AACGCTCT, the “PBM 8-mer E-score” value was -0.143. With AGGAGGTC the “PBM 8-mer E-score” value was -0.369. In the case of CAGCCCAG, the “PBM 8-mer E-score” value is reported as -0.247. For CCCCGTTA, the “PBM 8-mer E-score” value was 0.0421. For CGATCTTC, the “PBM 8-mer E-score” value was -0.0568. For AACTACGG, the “PBM 8-mer E-score” value was 0.0587. With ATTGAAGG the “PBM 8-mer E-score” value was -0.0342. With CCTGTGAC the “PBM 8-mer E-score” value was -0.181. With AAGCTGAC the “PBM 8-mer E-score” value was -0.251. In the case of CCGGCATC, the “PBM 8-mer E-score” value is reported as -0.184. In the case of CAAACGGC, the “PBM 8-mer E-score” value is reported as -0.0341. AATAGCGG was tested, and the “PBM 8-mer E-score” value was 0.153. GAGTATTA was tested, and the “PBM 8-mer E-score” value was 0.269. CCTTCGTC was tested, and the “PBM 8-mer E-score” value was -0.332. CTCCGCCC was tested, and the “PBM 8-mer E-score” value was -0.181. With GCAGAGTA the “PBM 8-mer E-score” value was -0.0809. With GAGATTGC the “PBM 8-mer E-score” value was -0.00565. For AGCGTAGC, the “PBM 8-mer E-score” value was -0.267. With AAAAGGAC the “PBM 8-mer E-score” value was -0.0105. In the case of AACCACTG, the “PBM 8-mer E-score” value is reported as -0.0219. With ACCGACCC the “PBM 8-mer E-score” value was -0.194. With GAGCCCGA the “PBM 8-mer E-score” value was -0.213. In the case of ACCGCAGT, the “PBM 8-mer E-score” value is reported as -0.061. With AGCCCGCA the “PBM 8-mer E-score” value was -0.172. In the case of ACCTGAGA, the “PBM 8-mer E-score” value is reported as -0.156. CCCTCTAC was tested, and the “PBM 8-mer E-score” value was -0.296. In the case of AATGATTC, the “PBM 8-mer E-score” value is reported as 0.144. AAATGCCG was tested, and the “PBM 8-mer E-score” value was 0.0241. With CCGAACCA the “PBM 8-mer E-score” value was -0.0552. In the case of TCGGAGCA, the “PBM 8-mer E-score” value is reported as -0.0951. CCTAAGGA was tested, and the “PBM 8-mer E-score” value was -0.238. In the case of AGGCGACT, the “PBM 8-mer E-score” value is reported as -0.197. For AGAAAGCG, the “PBM 8-mer E-score” value was -0.000845. ACTTCGGA was tested, and the “PBM 8-mer E-score” value was -0.0627. With CCCTATGC the “PBM 8-mer E-score” value was -0.147. For CTTACTCC, the “PBM 8-mer E-score” value was -0.122. ATGGGTAA was tested, and the “PBM 8-mer E-score” value was 0.103. GTGGCAAC was tested, and the “PBM 8-mer E-score” value was -0.0649. With ACTCCCCA the “PBM 8-mer E-score” value was -0.296. AGTGTCTA was tested, and the “PBM 8-mer E-score” value was 0.101. For CCGCCCCA, the “PBM 8-mer E-score” value was -0.285. CGTAATCA was tested, and the “PBM 8-mer E-score” value was 0.0215. For ACTTACAA, the “PBM 8-mer E-score” value was 0.307. In the case of AAGAGTAA, the “PBM 8-mer E-score” value is reported as 0.137. In the case of ATTCCTCG, the “PBM 8-mer E-score” value is reported as 0.173. For AACCGTAT, the “PBM 8-mer E-score” value was -0.00352. CAACACCG was tested, and the “PBM 8-mer E-score” value was -0.0186. For CTATAGTC, the “PBM 8-mer E-score” value was -0.0729. For TAGTAAGA, the “PBM 8-mer E-score” value was 0.135. In the case of ATAATAAG, the “PBM 8-mer E-score” value is reported as 0.43. With CTCGCCCC the “PBM 8-mer E-score” value was -0.0975. For GTGTTGTA, the “PBM 8-mer E-score” value was 0.187. With CAACACCC the “PBM 8-mer E-score” value was -0.0758. With CGGCGGTC the “PBM 8-mer E-score” value was -0.246. CCTCACTC was tested, and the “PBM 8-mer E-score” value was -0.172. For AGGCTAAC, the “PBM 8-mer E-score” value was 0.0586. For GGACATAA, the “PBM 8-mer E-score” value was 0.167. AGCACCCC was tested, and the “PBM 8-mer E-score” value was -0.116. AACAAGTC was tested, and the “PBM 8-mer E-score” value was -0.056. AAGACATA was tested, and the “PBM 8-mer E-score” value was 0.152. With CTCGGGGA the “PBM 8-mer E-score” value was -0.116. In the case of CTCCAGAA, the “PBM 8-mer E-score” value is reported as -0.0856. In the case of ACATCTAT, the “PBM 8-mer E-score” value is reported as 0.174. CTCGCAAG was tested, and the “PBM 8-mer E-score” value was -0.0341.
